{"source": "paper PMC4336329", "about": "(PLoS ONE, 2015)", "note": "The whole screen tested about 310,000 compounds, of which about 2,200 (0.71%) showed an effect of 50% or more. Effects have a minus sign here. Some of the results follow."}
{"target": "human ether-à-go-go-related gene (hERG) potassium channel (human, UniProt Q12809)", "sequence (Q12809 whole entry, looked up)": "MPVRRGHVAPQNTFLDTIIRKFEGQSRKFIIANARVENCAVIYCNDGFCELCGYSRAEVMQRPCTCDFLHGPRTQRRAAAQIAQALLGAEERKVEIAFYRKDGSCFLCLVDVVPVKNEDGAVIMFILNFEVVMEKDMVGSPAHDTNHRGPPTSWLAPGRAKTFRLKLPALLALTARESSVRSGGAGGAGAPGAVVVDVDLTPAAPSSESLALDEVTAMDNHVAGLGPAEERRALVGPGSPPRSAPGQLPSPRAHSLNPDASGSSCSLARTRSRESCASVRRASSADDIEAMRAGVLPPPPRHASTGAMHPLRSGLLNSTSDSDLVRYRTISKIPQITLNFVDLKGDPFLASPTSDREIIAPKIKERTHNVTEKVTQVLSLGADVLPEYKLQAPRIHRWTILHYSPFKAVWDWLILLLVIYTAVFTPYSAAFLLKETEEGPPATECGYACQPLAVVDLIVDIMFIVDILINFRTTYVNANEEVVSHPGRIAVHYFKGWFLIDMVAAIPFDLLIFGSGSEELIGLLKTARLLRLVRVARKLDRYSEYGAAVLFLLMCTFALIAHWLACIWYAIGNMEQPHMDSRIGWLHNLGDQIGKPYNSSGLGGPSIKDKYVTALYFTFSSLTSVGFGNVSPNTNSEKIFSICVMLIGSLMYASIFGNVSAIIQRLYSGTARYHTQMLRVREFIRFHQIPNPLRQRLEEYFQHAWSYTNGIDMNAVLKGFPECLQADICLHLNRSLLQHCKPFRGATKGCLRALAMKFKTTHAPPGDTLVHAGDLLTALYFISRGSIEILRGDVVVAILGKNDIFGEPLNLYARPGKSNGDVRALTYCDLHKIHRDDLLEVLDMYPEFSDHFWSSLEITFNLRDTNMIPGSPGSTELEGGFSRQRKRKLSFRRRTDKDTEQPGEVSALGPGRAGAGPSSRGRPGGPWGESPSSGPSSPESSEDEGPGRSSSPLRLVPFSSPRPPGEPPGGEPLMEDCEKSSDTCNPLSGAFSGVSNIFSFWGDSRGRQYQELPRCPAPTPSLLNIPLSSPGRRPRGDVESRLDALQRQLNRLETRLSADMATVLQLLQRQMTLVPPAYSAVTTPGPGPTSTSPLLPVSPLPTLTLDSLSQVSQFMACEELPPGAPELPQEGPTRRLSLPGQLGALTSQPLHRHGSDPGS", "experiment": "primary screen, population patch clamp on CHO cells stably expressing hERG", "units": {"hERG current change (%, negative = inhibition) at 1uM": "%"}}
{"smiles": "COc1cc(/C=N/O)cc(Br)c1OC", "hERG current change (%, negative = inhibition) at 1uM": 10.9}
{"smiles": "OCC1(Cc2ccccc2)CCN(Cc2cnn(-c3ccccc3F)c2)CC1", "hERG current change (%, negative = inhibition) at 1uM": -4.22}
{"smiles": "O=c1[nH]c(=S)[nH]c(O)c1N=Nc1ccc2c(c1)OCO2", "hERG current change (%, negative = inhibition) at 1uM": 8.74}
{"smiles": "COc1cc(CN2CCCCCC2)c([N+](=O)[O-])cc1OC", "hERG current change (%, negative = inhibition) at 1uM": 8.92}
{"smiles": "Cc1sc(-n2c(C)cc(C=O)c2C)c(C(=O)O)c1C", "hERG current change (%, negative = inhibition) at 1uM": 5.17}
{"smiles": "COc1ccc(NC(=O)COC(=O)[C@@H]2CCCN2S(=O)(=O)c2ccccc2F)c(OC)c1", "hERG current change (%, negative = inhibition) at 1uM": 9.01}
{"smiles": "CCCc1cc(=O)[nH]c(SCC(=O)NC(=O)c2ccccc2)n1", "hERG current change (%, negative = inhibition) at 1uM": 5.94}
{"smiles": "COc1cc(OC)c(NC(=O)CCc2nc(-c3ccc(C)cc3)no2)cc1Cl", "hERG current change (%, negative = inhibition) at 1uM": 1.02}
{"smiles": "Cc1ccccc1C(=O)NNC(=O)c1cc(S(=O)(=O)N2CCOCC2)ccc1C", "hERG current change (%, negative = inhibition) at 1uM": 9.44}
{"smiles": "C/C(=N\\Nc1nc(C)cc(-c2ccccc2)n1)c1ccccc1", "hERG current change (%, negative = inhibition) at 1uM": 18.9}
{"smiles": "Cc1cc([N+](=O)[O-])nn1CC(=O)NNC(=S)Nc1ccc(F)cc1", "hERG current change (%, negative = inhibition) at 1uM": 5.99}
{"smiles": "CC(C)Oc1cccc(C(=O)C2CCCN(Cc3cccn3-c3ccccn3)C2)c1", "note": "(centres unmarked)", "hERG current change (%, negative = inhibition) at 1uM": -81.7}
{"smiles": "Fc1ccccc1-c1nc(NCc2ccccc2)c2ccccc2n1", "hERG current change (%, negative = inhibition) at 1uM": 12.4}
{"smiles": "Cc1ccc(CCNC(=O)CCn2c(=O)c3cccn3c3ccc(F)cc32)cc1", "hERG current change (%, negative = inhibition) at 1uM": -1.59}
{"smiles": "CC(C)NS(=O)(=O)c1ccc(N2C(=O)c3ccccc3C2=O)cc1", "hERG current change (%, negative = inhibition) at 1uM": 1.18}
{"smiles": "CC(C)CC(=O)NC(=S)Nc1nc(-c2ccc(Cl)cc2)cs1", "hERG current change (%, negative = inhibition) at 1uM": -4.42}
{"smiles": "CC(=O)c1ccc(NC(=O)C2CCC(C)(C(=O)O)C2(C)C)cc1", "note": "(centres unmarked)", "hERG current change (%, negative = inhibition) at 1uM": -4.25}
{"smiles": "C=CC[C@H]1CC(C)=C[C@H](CC=C)N1C(=O)c1cc(COc2ccccc2SC)on1", "hERG current change (%, negative = inhibition) at 1uM": 12.9}
{"smiles": "Cc1c(C(=O)N(C)C)sc(NC(=O)c2cccc([N+](=O)[O-])c2)c1C#N", "hERG current change (%, negative = inhibition) at 1uM": 15.8}
{"smiles": "O=C(CN1CC(c2ccccc2)CC1=O)Nc1ccc(F)cc1", "note": "(centres unmarked)", "hERG current change (%, negative = inhibition) at 1uM": 2.7}
{"smiles": "O=C(NN1CC(C(=O)OCc2ccccc2F)CC1=O)c1ccccc1", "note": "(centres unmarked)", "hERG current change (%, negative = inhibition) at 1uM": -16.9}
{"smiles": "CCc1ccc(N2Cc3ccccc3C2)cc1", "hERG current change (%, negative = inhibition) at 1uM": 7.99}
{"smiles": "CC(NC(=O)c1cc(F)c(F)cc1Cl)c1ccncc1", "note": "(centres unmarked)", "hERG current change (%, negative = inhibition) at 1uM": -2.75}
{"smiles": "COC(=O)c1ccc(NC(=O)Cn2nc(-c3ccncc3)nc2SCC(=O)Nc2nccs2)cc1", "hERG current change (%, negative = inhibition) at 1uM": 5.27}
{"smiles": "CC1CCN(Cc2c(C(=O)N/N=C/c3ccc(OC(C)C)cc3)nnn2-c2nonc2N)CC1", "hERG current change (%, negative = inhibition) at 1uM": 6.27}
{"smiles": "COCCNC(=O)c1cccc(NS(=O)(=O)c2cccc3cccnc23)c1", "hERG current change (%, negative = inhibition) at 1uM": 15.1}
{"smiles": "C=CCn1c(SCC(=O)NC2CC2)nnc1C1CC1", "hERG current change (%, negative = inhibition) at 1uM": 17.2}
{"smiles": "COc1ccccc1NC(=O)c1c(Br)cnn1C", "hERG current change (%, negative = inhibition) at 1uM": 8.12}
{"smiles": "CCOc1ccccc1N1CCN(CC(=O)NC(=O)NCc2ccco2)CC1", "hERG current change (%, negative = inhibition) at 1uM": 2.54}
{"smiles": "CCC(=O)c1cccc2c1N=CC1=C(CC(C)(C)CC1=O)N2", "hERG current change (%, negative = inhibition) at 1uM": 13}
{"smiles": "Cc1cc(C)n(-c2cc(Cl)ccc2[N+](=O)[O-])n1", "hERG current change (%, negative = inhibition) at 1uM": 9.86}
{"smiles": "COC(=O)C1=C(c2ccc(OC(F)(F)F)cc2)C[C@@H]2CC[C@H]1N2C(=O)NCCOc1ccc(OC)cc1", "hERG current change (%, negative = inhibition) at 1uM": 1.23}
{"smiles": "O=C(NCC(=O)N(c1cccnc1)C(C(=O)NC1CCCC1)c1ccccc1)c1ccco1", "note": "(centres unmarked)", "hERG current change (%, negative = inhibition) at 1uM": 4.96}
{"smiles": "CC(C)(C)OC(=O)N[C@@H](Cc1ccccc1)[C@H](O)c1ccco1", "hERG current change (%, negative = inhibition) at 1uM": 9.47}
{"smiles": "CCOc1ccccc1N(CC(=O)N1CCCCCC1)S(C)(=O)=O", "hERG current change (%, negative = inhibition) at 1uM": 12.3}
{"smiles": "CCCS(=O)(=O)Nc1cccc(-c2cn3c(n2)SCC3)c1", "hERG current change (%, negative = inhibition) at 1uM": 9.3}
{"smiles": "O=C(/C=C/c1cccc([N+](=O)[O-])c1)NCc1ccc2c(c1)OCO2", "hERG current change (%, negative = inhibition) at 1uM": 6.47}
{"smiles": "COc1ccc2c(c1)CC/C(=C/c1ccncc1)C2=O", "hERG current change (%, negative = inhibition) at 1uM": -5.62}
{"smiles": "Cc1ccc(NC(=S)Nc2ccc(C(C)C)cc2)cc1S(=O)(=O)N1CCCCCC1", "hERG current change (%, negative = inhibition) at 1uM": 4.75}
{"smiles": "COc1cccc(NC(=O)CCc2nnc3ccc(NCc4ccco4)nn23)c1", "hERG current change (%, negative = inhibition) at 1uM": 12.4}
{"smiles": "Cc1ccn2c(=O)nc(SCC(=O)c3ccc(Cl)cc3)nc2c1", "hERG current change (%, negative = inhibition) at 1uM": -2.65}
{"smiles": "CC(C)(C)CC(=O)Nc1cccc2c1CCCC2", "hERG current change (%, negative = inhibition) at 1uM": -0.305}
{"smiles": "C=C(C)Cn1c(CCCNC(=O)CC)nc2ccccc21", "hERG current change (%, negative = inhibition) at 1uM": 4.91}
{"smiles": "CC(C)(C)c1nnc(NC(=O)CCS(=O)(=O)c2ccccc2)s1", "hERG current change (%, negative = inhibition) at 1uM": 10.1}
